Measured values published in publication PMC12136788.
Some of the results follow.

B1: ENSG00000124766:be:win_1451|3pUTR|ENSG00000124766|bound_else_gene|NA|bound_elsewhere_windowed (ssRNA)
RNA: GGGAGUUCUACAGUCCGACGAUCCGGGGGGGGUAGGAGAGGAGAAAAAAAAAGUGAAAAAAAGAAACGAAAAGGACAGACGAAGAGUUUAAAGAGAAAAGGGAAAAAAGAAAGAAAAAGUAAGCAGGGCUGGCUUCGCCCGCGCAACAGAGGAUUGAGCAUCA
B2: chr4:56994692:56994796:+|CDS|ENSG00000047315|unk|FALSE|unique (ssRNA)
RNA: GGGAGUUCUACAGUCCGACGAUCAAAAACAGUCAUUAAAGAAGGUGAAGAACAACUUCAGACUCAGCAUCAGAAAACUUUUAUAGGAAAAAUUCCAAUUAUGUUGCGGUCAACUUACUGCCUUUUGAAUGGCUUGACAGAUCGCAACAGAGGAUUGAGCAUCA
B3: ENSG00000084234:stop:overlap|stop_codon|ENSG00000084234|stop_codon|NA|stop_codon (ssRNA)
RNA: GGGAGUUCUACAGUCCGACGAUCAGAUGCAGAACCAUGGCUAUGAGAACCCCACCUACAAAUACCUGGAGCAGAUGCAGAUUUAGGUGGCAGGGAGCGCGGCAGCCCUGGCGGAGGGAUGCAGGUGGGCCGGAAGAUCCCACGCAACAGAGGAUUGAGCAUCA
B4: chr14:55043969:55044070:+|CDS|ENSG00000180008|unk|FALSE|bound_elsewhere (ssRNA)
RNA: GGGAGUUCUACAGUCCGACGAUCUUUUUACUUCGAGACUCAGCACAGGAAGACUAUUUAUUCUCUGUUAGUUUUAGACGCUAUAGUCGUUCUCUUCAUGCUAGAAUUGAACAGUGGAAUCACAACUUUAGCUUUGAUGCACAUCAACAGAGGAUUGAGCAUCA
B5: chr10:72062367:72062468:-|3pUTR|ENSG00000107742|unk|FALSE|unique (ssRNA)
RNA: GGGAGUUCUACAGUCCGACGAUCCCUUGAUCCACACUGCUCCUGGCAGAGUGAGUCACCCAAAGGCCCCUUCGGCCUCCUUGUAGCUGUUUUCUUUCCUUUUGUUGUUGGUUUUAAAAUACAUUCACACACAAAUACAAAUUGCAACAGAGGAUUGAGCAUCA
B6: chr17:35924603:35924772:-|CDS|ENSG00000278023|control|control|control (ssRNA)
RNA: GGGAGUUCUACAGUCCGACGAUCGGAAAAUGAAGAUAGCAUGGUGCCACUUCCGAAGCAAAGCCUGAAGUUCUUCUGUGCUUUAGAAGUGGUGUUGCCAUCCUGUGAUUGCAGGAGUCCUGGCAUUGGCUUGGUGGAGGAGCCCAACAGAGGAUUGAGCAUCA
B7: chr5:148417036:148417137:+|CDS|ENSG00000145868|unk|total|mutant (ssRNA)
RNA: GGGAGUUCUACAGUCCGACGAUCGGUUGUGCUCGAGUUGGUCUGAGUGCAGGCACAGGAAUUGGUGUUUCAUCAGCUCUUGUCCGCAACCAGAACUCCAACAAUGACGAUAAUAAUGCCCAGAAUAACAAUGCCAACAUCCACCAACAGAGGAUUGAGCAUCA
B8: chr10:62806226:62806343:+|3pUTR|ENSG00000181915|unk|FALSE|unique (ssRNA)
RNA: GGGAGUUCUACAGUCCGACGAUCCUACCCCUUAGUUAAAUAGGGUUUAUUUUCCACUCAUGCCCUUAUGCCUUUUUUUCUUAUAGUUUUUUAACUUAUUGACUGUGCAUGACCCAGUGGUUUGAAUUGUUUUUAGUUCAAGUCCAACAGAGGAUUGAGCAUCA
B9: chr10:50307981:50308148:-|CDS|ENSG00000198964|control|control|control (ssRNA)
RNA: GGGAGUUCUACAGUCCGACGAUCCUGGUGGUAUCACUGGAUUUGCUGGCUUCUCAGCGUAGUUGGAAUCUUCUGUAUUCUCUUAGCGCAUGACCACUACACUGUGGACGUGGUGGUGGCAUAUUACAUCACCACGAGACUCUUCAACAGAGGAUUGAGCAUCA
B10: chr3:197282668:197282805:-|CDS|ENSG00000075711|msi1|FALSE|unique (ssRNA)
RNA: GGGAGUUCUACAGUCCGACGAUCUGGGAGAUUUCCAGCCUUCCAAGCUCUACUGUGACUUCAGAGACACUGCCAAGCAGCCUUAGCCCUAGUGUAGAGGUGAGAUAAAAAAUGUGUUCUGAAGCUGUUUUUUGGUGAUCAAUUCAACAGAGGAUUGAGCAUCA
B11: chr9:115020670:115020933:-|3pUTR|ENSG00000041982|msi1|FALSE|unique (ssRNA)
RNA: GGGAGUUCUACAGUCCGACGAUCCUUCUCUUAGGUGGCUCUGGGAAUGGGAGAGGGGUAGGAUGUACAGGGGUAGUUUGUUUUAGAACCAGCCGUAUUUUACAUGAAGCUGUAUAAUUAAUUGUCAUUAUUUUUGUUAGCAAACAACAGAGGAUUGAGCAUCA
B12: chr3:194355248:194359297:-|three_prime_utr|ENSG00000172061|control|control|control (ssRNA)
RNA: GGGAGUUCUACAGUCCGACGAUCCUCUUUCUGGCCCCAGAGAAAGGUGAGCCUACCUCUUCCUGACUUGCCUGAUUCUCCCGUAGAGAAGCAGGUCGUGCCGGACCUUCCUACAAUCAGGAAGAUAGAUCCAACUGGCCAUGGCAACAGAGGAUUGAGCAUCA
B13: chr1:215620365:215620495:+|CDS|ENSG00000136636|unk|FALSE|unique (ssRNA)
RNA: GGGAGUUCUACAGUCCGACGAUCGGUUUUUCAGAAUCCAAGAAAAGGUCAUCAGAAGAUGAAAAUGAAAAUAAAAUAGAGUUUAGGAAGAAAGGAGGAUUUGAAGGGGGAGGAUUCCUUGGAAGAAAGAAAGUUCCCUAUCUGCAACAGAGGAUUGAGCAUCA
B14: chr3:179570125:179570235:+|CDS|ENSG00000136518|unk|total|mutant (ssRNA)
RNA: GGGAGUUCUACAGUCCGACGAUCAAGCACAUUAAUGGAAACCGAUGGCGAUAAAGGCAAACAAGGCGGUCCCACCUACUACACCGAUACUAAUGCUCUGCGUGUUCCGAGGGAGAAUAUGGAGGCCAUUUCACCUCUAAAAAACAACAGAGGAUUGAGCAUCA
B15: chr12:132079871:132079972:+|3pUTR|ENSG00000183495|msi1|total|mutant (ssRNA)
RNA: GGGAGUUCUACAGUCCGACGAUCAGAUGCUACCGUUGACCUGAGUUAAAUUCAUUCCGUCGUGUACGUAAAAACUCUCCUUUCCGUGUGUUAUUUUCUUGGCCUUCCCUUUUAAAGGUUAAAGUUUCUAACCUAAGAAUUAAGCAACAGAGGAUUGAGCAUCA
B16: chr19:12699786:12699848:-|3pUTR|ENSG00000105576|msi1_unk|total|mutant (ssRNA)
RNA: GGGAGUUCUACAGUCCGACGAUCCCUGCUCCAUCCAUCCCUCCUGGGCGCCAGACCCUCCAUCCAAGCCCUGUGUCUUUCCACCGUCAGGGUCAGGCCCUGCAUCUAUUCCAAGGGGCACUCAGUACACAUUCCAUAAAUCCGCAACAGAGGAUUGAGCAUCA
B17: chr1:233671823:233671924:+|3pUTR|ENSG00000135750|msi1|FALSE|unique (ssRNA)
RNA: GGGAGUUCUACAGUCCGACGAUCUGCUGCUGUGGUUAGAAGCAGAUUUUAUACUUUUAACUGGAAACUUUGGGGUUUGCAUUUAGAUCAUUUAGCUGAUGGCUAAAUAGCAAAAUUUAUAUUUAGAAGCAAAAAAAAAAAGCACAACAGAGGAUUGAGCAUCA
B18: chr7:106091418:106091523:-|3pUTR|ENSG00000008282|msi1|total|mutant (ssRNA)
RNA: GGGAGUUCUACAGUCCGACGAUCUUUACACCUUAAGCCUUAACAUGUAUCUUCAUUCAGAAAACAGUUAUAUUGUCAUACCACCGCCGGAAGAAAAACCUUUAUUUGGAAUAUACACUACUGUAAGUUUGUACAGAUCAUAUACAACAGAGGAUUGAGCAUCA
B19: chr3:130733575:130733676:-|CDS|ENSG00000196455|msi1|FALSE|unique (ssRNA)
RNA: GGGAGUUCUACAGUCCGACGAUCCGUCAAAGAGGUUCCUCGUAAUGAUAUCAAUAUUUAUCCGGAAUACAUUCUGCCAGGCAUAGCCCACUUAGCCCAAGAUGAUGCUACUAUCGUUAGACUAGCCUAUGCUGGUAAGAGUUUCAACAGAGGAUUGAGCAUCA
B20: chr6:36855602:36855703:-|3pUTR|ENSG00000137168|msi1|FALSE|unique (ssRNA)
RNA: GGGAGUUCUACAGUCCGACGAUCGUCAUGAAGCUUAGGAGGCCUGGCAUCUUGGGUGAGUUAGAGAUGGAAGUACAUUUUAAUAGGAUGCUUCUUUUCUCUUCCCCCAGUGCCUAGGUUGCCAGAGCAUUUGCACAAAUGCCCCAACAGAGGAUUGAGCAUCA
B21: chr7:92086252:92086353:+|CDS|ENSG00000127914|msi1|FALSE|unique (ssRNA)
RNA: GGGAGUUCUACAGUCCGACGAUCUCAUGAGAGCUUCUCAGACUGGCGAGGUGAACUACUGCUUGCCCUUCAACAAGUUUUCUUAGAAGAGCGUAGUGUUUUACUAGCAGCAUUUCGGACGGAGCUGACAGCUCUAGGUACUACCAACAGAGGAUUGAGCAUCA
B22: chr12:30637093:30637194:-|CDS|ENSG00000133704|unk|total|mutant (ssRNA)
RNA: GGGAGUUCUACAGUCCGACGAUCUGUCUACAUUUUUUUUUUCUUCAAAAUUUGCAGGCAUCAUGACCGGAAGAUGUGUAUAACCGGACUGAGUAUCCUUUUGGAAUUGCAAAAUCGACCUCCUGCAGCCGAUGCUGUGGUGGGCAACAGAGGAUUGAGCAUCA

Biological target: MSI1 full-length (mouse, UniProt Q61474 1-362)
Assay: nsRBNS (natural sequence RNA bind-n-seq); RBNS binding buffer (assumed for nsRBNS): 25 mM Tris pH 7.5, 150 mM KCl, 3 mM MgCl2, 0.01% Triton X-100, 500 ug/ml BSA, 20 U/ml SUPERase-In, 4 C; UNK is unkempt and MSI1 is Musashi-1; names of the RNAs are library labels; protein concentration not given here; high values mean tight binding

Chain of UniProt Q61474 (Q61474 whole entry): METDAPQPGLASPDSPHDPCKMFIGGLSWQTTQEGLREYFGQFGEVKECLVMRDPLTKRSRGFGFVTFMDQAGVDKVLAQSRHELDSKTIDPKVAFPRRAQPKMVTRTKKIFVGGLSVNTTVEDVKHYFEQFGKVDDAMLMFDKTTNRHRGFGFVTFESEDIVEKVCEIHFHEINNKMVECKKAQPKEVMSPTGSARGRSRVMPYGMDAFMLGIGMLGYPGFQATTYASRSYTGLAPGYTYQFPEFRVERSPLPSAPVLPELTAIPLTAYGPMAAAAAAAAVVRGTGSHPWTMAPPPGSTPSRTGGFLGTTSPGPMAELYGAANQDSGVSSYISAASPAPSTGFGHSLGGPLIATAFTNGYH

| Binder | binding signal |
| --- | --- |
| B1 | 1.11 enrichment R |
| B2 | 0.453 enrichment R |
| B3 | 0.678 enrichment R |
| B4 | 8.13 enrichment R |
| B5 | 0.528 enrichment R |
| B6 | 0.574 enrichment R |
| B7 | 0.295 enrichment R |
| B8 | 10.9 enrichment R |
| B9 | 0.406 enrichment R |
| B10 | 3.02 enrichment R |
| B11 | 4.36 enrichment R |
| B12 | 0.351 enrichment R |
| B13 | 1.85 enrichment R |
| B14 | 0.428 enrichment R |
| B15 | 0.276 enrichment R |
| B16 | 0.796 enrichment R |
| B17 | 4.72 enrichment R |
| B18 | 0.843 enrichment R |
| B19 | 2.89 enrichment R |
| B20 | 0.88 enrichment R |
| B21 | 0.358 enrichment R |
| B22 | 0.267 enrichment R |
